This is one part of the list.
Experiments:
Assay in all cases: glycan array binding signal (z-score within array); higher = stronger binding
Conditions in all cases: glycan notation: IUPAC condensed, linker removed
[1] = target: Neu5Ac(a2-3)Gal(b1-4)GlcNAc(b1-2)Man(a1-3)[Neu5Ac(a2-3)Gal(b1-4)GlcNAc(b1-2)Man(a1-6)]Man(b1-4)GlcNAc(b1-4)[Fuc(a1-6)]GlcNAc
Procedure, shortened: (§1)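 Glycan array data came from 3228 arrays in the Consortium for Functional Glycomics database, and only arrays with an available protein sequence were kept. Glycan names were put into IUPAC-condensed notation, and columns mapping to the same glycan were averaged. The binding signal is a within-array Z-score, averaged across arrays of one protein sequence run at different concentrations or buffers and across linkers. A negative Z-score can be read as non-binding.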

[2] = target: Neu5Ac(a2-3)Gal(b1-4)GlcNAc(b1-2)Man(a1-3)[Neu5Ac(a2-6)Gal(b1-4)GlcNAc(b1-2)Man(a1-6)]Man(b1-4)GlcNAc(b1-4)GlcNAc
Procedure, shortened: as §1

[3] = target: Neu5Ac(a2-3)Gal(b1-4)GlcNAc(b1-2)[Neu5Ac(a2-3)Gal(b1-4)GlcNAc(b1-4)]Man(a1-3)[GlcNAc(b1-4)][Neu5Ac(a2-3)Gal(b1-4)GlcNAc(b1-2)[Neu5Ac(a2-3)Gal(b1-4)GlcNAc(b1-6)]Man(a1-6)]Man(b1-4)GlcNAc(b1-4)GlcNAc
Procedure, shortened: as §1

[4] = target: Neu5Ac(a2-3)Gal(b1-4)GlcNAc(b1-2)[Neu5Ac(a2-3)Gal(b1-4)GlcNAc(b1-4)]Man(a1-3)[GlcNAc(b1-4)][Neu5Ac(a2-3)Gal(b1-4)GlcNAc(b1-4)Man(a1-6)]Man(b1-4)GlcNAc(b1-4)GlcNAc
Procedure, shortened: as §1

[5] = target: Neu5Ac(a2-3)Gal(b1-4)GlcNAc(b1-2)[Neu5Ac(a2-3)Gal(b1-4)GlcNAc(b1-6)]Man(a1-6)[Neu5Ac(a2-3)Gal(b1-4)GlcNAc(b1-2)Man(a1-3)]Man(b1-4)GlcNAc(b1-4)GlcNAc
Procedure, shortened: as §1

[6] = target: Neu5Ac(a2-3)Gal(b1-4)GlcNAc(b1-2)[Neu5Ac(a2-3)Gal(b1-4)GlcNAc(b1-6)]Man(a1-6)[Neu5Ac(a2-3)Gal(b1-4)GlcNAc(b1-2)Man(a1-3)][GlcNAc(b1-4)]Man(b1-4)GlcNAc(b1-4)GlcNAc
Procedure, shortened: as §1

[7] = target: Neu5Ac(a2-3)Gal(b1-4)GlcNAc(b1-3)Gal
Procedure, shortened: as §1

[8] = target: Neu5Ac(a2-3)Gal(b1-4)GlcNAc(b1-3)Gal(b1-3)GlcNAc
Procedure, shortened: as §1

[9] = target: Neu5Ac(a2-3)Gal(b1-4)GlcNAc(b1-3)Gal(b1-4)GlcNAc
Procedure, shortened: as §1

[10] = target: Neu5Ac(a2-3)Gal(b1-4)GlcNAc(b1-3)Gal(b1-4)GlcNAc(b1-2)Man(a1-3)[Neu5Ac(a2-3)Gal(b1-4)GlcNAc(b1-3)Gal(b1-4)GlcNAc(b1-2)Man(a1-6)]Man(b1-4)GlcNAc(b1-4)GlcNAc
Procedure, shortened: as §1

[11] = target: Neu5Ac(a2-3)Gal(b1-4)GlcNAc(b1-3)Gal(b1-4)GlcNAc(b1-3)Gal(b1-4)GlcNAc
Procedure, shortened: as §1

[12] = target: Neu5Ac(a2-3)Gal(b1-4)GlcNAc(b1-3)Gal(b1-4)GlcNAc(b1-3)Gal(b1-4)GlcNAc(b1-2)Man(a1-3)[Neu5Ac(a2-3)Gal(b1-4)GlcNAc(b1-3)Gal(b1-4)GlcNAc(b1-3)Gal(b1-4)GlcNAc(b1-2)Man(a1-6)]GalNAc
Procedure, shortened: as §1

[13] = target: Neu5Ac(a2-3)Gal(b1-4)GlcNAc(b1-3)Gal(b1-4)GlcNAc(b1-3)GalNAc
Procedure, shortened: as §1

[14] = target: Neu5Ac(a2-3)Gal(b1-4)GlcNAc(b1-3)Gal(b1-4)GlcNAc(b1-3)[Neu5Ac(a2-3)Gal(b1-4)GlcNAc(b1-3)Gal(b1-4)GlcNAc(b1-6)]GalNAc
Procedure, shortened: as §1

[15] = target: Neu5Ac(a2-3)Gal(b1-4)GlcNAc(b1-3)Gal(b1-4)GlcNAc(b1-6)[Gal(b1-3)]GalNAc
Procedure, shortened: as §1

[16] = target: Neu5Ac(a2-3)Gal(b1-4)GlcNAc(b1-3)Gal(b1-4)[Fuc(a1-3)]GlcNAc
Procedure, shortened: as §1

[17] = target: Neu5Ac(a2-3)Gal(b1-4)GlcNAc(b1-3)GalNAc
Procedure, shortened: as §1

[18] = target: Neu5Ac(a2-3)Gal(b1-4)GlcNAc(b1-3)[Neu5Ac(a2-3)Gal(b1-4)GlcNAc(b1-6)]GalNAc
Procedure, shortened: as §1

[19] = target: Neu5Ac(a2-3)Gal(b1-4)GlcNAc(b1-6)GalNAc
Procedure, shortened: as §1

[20] = target: Neu5Ac(a2-3)Gal(b1-4)GlcNAc(b1-6)[Gal(b1-3)]GalNAc
Procedure, shortened: as §1

[21] = target: Neu5Ac(a2-3)Gal(b1-4)GlcNAc(b1-6)[Neu5Ac(a2-3)Gal(b1-3)]GalNAc
Procedure, shortened: as §1

[22] = target: Neu5Ac(a2-3)Gal(b1-4)GlcNAc6S
Procedure, shortened: as §1

[23] = target: Neu5Ac(a2-3)Gal(b1-4)[Fuc(a1-3)]GlcNAc
Procedure, shortened: as §1

[24] = target: Neu5Ac(a2-3)Gal(b1-4)[Fuc(a1-3)]GlcNAc(b1-2)Man
Procedure, shortened: as §1

[25] = target: Neu5Ac(a2-3)Gal(b1-4)[Fuc(a1-3)]GlcNAc(b1-3)Gal
Procedure, shortened: as §1

[26] = target: Neu5Ac(a2-3)Gal(b1-4)[Fuc(a1-3)]GlcNAc(b1-3)Gal(b1-4)GlcNAc
Procedure, shortened: as §1

[27] = target: Neu5Ac(a2-3)Gal(b1-4)[Fuc(a1-3)]GlcNAc(b1-3)Gal(b1-4)[Fuc(a1-3)]GlcNAc(b1-3)Gal(b1-4)[Fuc(a1-3)]GlcNAc
Procedure, shortened: as §1

[28] = target: Neu5Ac(a2-3)Gal(b1-4)[Fuc(a1-3)]GlcNAc(b1-3)GalNAc
Procedure, shortened: as §1

[29] = target: Neu5Ac(a2-3)Gal(b1-4)[Fuc(a1-3)]GlcNAc(b1-6)[Gal(b1-3)]GalNAc
Procedure, shortened: as §1

[30] = target: Neu5Ac(a2-3)Gal(b1-4)[Fuc(a1-3)]GlcNAc(b1-6)[Neu5Ac(a2-3)Gal(b1-3)]GalNAc
Procedure, shortened: as §1

[31] = target: Neu5Ac(a2-3)Gal(b1-4)[Fuc(a1-3)]GlcNAc6S
Procedure, shortened: as §1

[32] = target: Neu5Ac(a2-3)Gal6S(b1-4)GlcNAc
Procedure, shortened: as §1

[33] = target: Neu5Ac(a2-3)Gal6S(b1-4)[Fuc(a1-3)]GlcNAc
Procedure, shortened: as §1

Neu5Ac(a2-3)GalNAc = target: Neu5Ac(a2-3)GalNAc
Procedure, shortened: as §1

[34] = target: Neu5Ac(a2-3)GalNAc(b1-4)GlcNAc
Procedure, shortened: as §1

[35] = target: Neu5Ac(a2-3)[GalNAc(b1-4)]Gal(b1-4)Glc
Procedure, shortened: as §1

[36] = target: Neu5Ac(a2-3)[GalNAc(b1-4)]Gal(b1-4)GlcNAc
Procedure, shortened: as §1

B1: Epa9 (Candida glabrata), CAGL0A01386g (protein)
chain: MGSSHHHHHHSSGLVPRGSHMDITPFAHYPRPEGCSSPPNAVSVGLHMDLYNYPYLYVKNPRTGFTNDTDSDADGETDGDSAGGIEGRAGQCWNPEYQDPNFPRYGYKKYGSFGSSDHVNGKISWDHNEFKEGCKPIMARLPTAYNYPAKITFSNFTMVLSGYFKPKSTGLYKFEIHADDFILFNFGSKNAFECCNREESIDNFGPYVAYAMWPNEADQELEVYLFEDSYYPIRLFYNNRDYHSKFMVGFYPPNTEEITYDFDGYLYMLDDTGNECKDSIRYKTVCDD
[1]
  glycan array binding signal (z-score): -0.466
[2]
  glycan array binding signal (z-score): -0.429
[3]
  glycan array binding signal (z-score): -0.447
[4]
  glycan array binding signal (z-score): -0.429
[5]
  glycan array binding signal (z-score): -0.439
[6]
  glycan array binding signal (z-score): -0.453
[7]
  glycan array binding signal (z-score): -0.478
[8]
  glycan array binding signal (z-score): -0.478
[9]
  glycan array binding signal (z-score): -0.441
[10]
  glycan array binding signal (z-score): 0.335
[11]
  glycan array binding signal (z-score): -0.407
[12]
  glycan array binding signal (z-score): -0.275
[13]
  glycan array binding signal (z-score): -0.387
[14]
  glycan array binding signal (z-score): 0.398
[15]
  glycan array binding signal (z-score): 0.423
[16]
  glycan array binding signal (z-score): -0.587
[17]
  glycan array binding signal (z-score): -0.466
[18]
  glycan array binding signal (z-score): -0.436
[19]
  glycan array binding signal (z-score): -0.495
[20]
  glycan array binding signal (z-score): 0.798
[21]
  glycan array binding signal (z-score): -0.464
[22]
  glycan array binding signal (z-score): -0.442
[23]
  glycan array binding signal (z-score): -0.44
[24]
  glycan array binding signal (z-score): -0.452
[25]
  glycan array binding signal (z-score): -0.474
[26]
  glycan array binding signal (z-score): -0.253
[27]
  glycan array binding signal (z-score): -0.479
[28]
  glycan array binding signal (z-score): 0.004
[29]
  glycan array binding signal (z-score): -0.217
[30]
  glycan array binding signal (z-score): -0.256
[31]
  glycan array binding signal (z-score): -0.455
[32]
  glycan array binding signal (z-score): -0.488
[33]
  glycan array binding signal (z-score): -0.477
Neu5Ac(a2-3)GalNAc
  glycan array binding signal (z-score): -0.492
[34]
  glycan array binding signal (z-score): -0.465
[35]
  glycan array binding signal (z-score): -0.447
[36]
  glycan array binding signal (z-score): -0.462
